Data from US20240076343A1 (CEPHALON, published 2024).

Assays:
[1] = molecular target: T1, recombinant human CD25 extracellular domain, C-terminal poly-histidine tagged (human, UniProt P01589 22-240); experiment: BLI (Octet)
T1 construct: also called CD25/IL-2Rα; IL-2Rα
T1 sequence: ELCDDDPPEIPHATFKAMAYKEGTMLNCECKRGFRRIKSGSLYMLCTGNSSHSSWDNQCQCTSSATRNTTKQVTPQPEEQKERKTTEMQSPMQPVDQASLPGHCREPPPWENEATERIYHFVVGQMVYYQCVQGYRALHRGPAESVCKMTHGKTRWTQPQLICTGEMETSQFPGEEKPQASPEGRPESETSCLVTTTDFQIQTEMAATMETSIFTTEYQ

[2] = molecular target: T2, intermediate-affinity hIL-2 receptor complex (IL-2Rβγ) on TF1+IL-2Rβ cells (human, UniProt P14784 27-551; P31785 23-369); experiment: cell-based or functional assay
T2 sequence 1: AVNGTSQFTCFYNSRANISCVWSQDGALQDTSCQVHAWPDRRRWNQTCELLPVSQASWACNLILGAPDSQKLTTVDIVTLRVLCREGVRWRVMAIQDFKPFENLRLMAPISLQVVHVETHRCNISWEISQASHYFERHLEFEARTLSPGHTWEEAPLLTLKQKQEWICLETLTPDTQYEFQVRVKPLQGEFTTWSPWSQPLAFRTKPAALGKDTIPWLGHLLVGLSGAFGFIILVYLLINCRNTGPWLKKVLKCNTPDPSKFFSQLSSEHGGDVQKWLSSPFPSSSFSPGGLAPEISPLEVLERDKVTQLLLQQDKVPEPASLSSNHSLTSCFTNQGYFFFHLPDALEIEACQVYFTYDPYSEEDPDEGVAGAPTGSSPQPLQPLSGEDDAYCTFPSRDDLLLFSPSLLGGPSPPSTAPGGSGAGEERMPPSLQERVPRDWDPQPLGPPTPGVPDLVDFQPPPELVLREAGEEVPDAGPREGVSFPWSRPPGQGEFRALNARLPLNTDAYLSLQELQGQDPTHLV
T2 sequence 2: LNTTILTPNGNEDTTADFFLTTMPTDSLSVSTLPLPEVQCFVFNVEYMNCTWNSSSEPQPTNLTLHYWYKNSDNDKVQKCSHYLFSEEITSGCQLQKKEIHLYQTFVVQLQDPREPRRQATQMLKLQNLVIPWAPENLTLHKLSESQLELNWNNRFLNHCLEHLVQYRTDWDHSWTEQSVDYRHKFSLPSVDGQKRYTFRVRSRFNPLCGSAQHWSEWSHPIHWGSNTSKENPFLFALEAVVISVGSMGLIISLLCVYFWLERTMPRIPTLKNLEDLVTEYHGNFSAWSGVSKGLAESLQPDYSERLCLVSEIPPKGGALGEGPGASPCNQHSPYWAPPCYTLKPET

[3] = molecular target: T3, recombinant human CD122 extracellular domain, C-terminal poly-histidine tagged (human, UniProt P14784 27-240); experiment: BLI (Octet)
T3 construct: also called CD122/IL-2Rβ; IL-2Rβ
T3 sequence: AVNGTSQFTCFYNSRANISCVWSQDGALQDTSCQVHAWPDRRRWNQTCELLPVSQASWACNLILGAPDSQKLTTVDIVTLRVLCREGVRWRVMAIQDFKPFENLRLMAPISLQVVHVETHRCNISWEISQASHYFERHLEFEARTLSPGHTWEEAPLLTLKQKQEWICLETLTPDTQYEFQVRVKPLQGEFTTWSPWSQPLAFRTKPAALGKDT

[4] = molecular target: T4, intermediate affinity hIL-2 receptor (hIL-2Rβγ) on TF1+IL-2Rβ cells (human, UniProt P14784 27-551; P31785 23-369); experiment: cell-based or functional assay
T4 sequence 1: T2 sequence 1
T4 sequence 2: T2 sequence 2

[5] = molecular target: T5, high-affinity hIL-2 receptor (IL-2Rαβγ) on NK-92 cells (human, UniProt P01589 22-272; P14784 27-551; P31785 23-369); experiment: cell-based or functional assay
T5 sequence 1: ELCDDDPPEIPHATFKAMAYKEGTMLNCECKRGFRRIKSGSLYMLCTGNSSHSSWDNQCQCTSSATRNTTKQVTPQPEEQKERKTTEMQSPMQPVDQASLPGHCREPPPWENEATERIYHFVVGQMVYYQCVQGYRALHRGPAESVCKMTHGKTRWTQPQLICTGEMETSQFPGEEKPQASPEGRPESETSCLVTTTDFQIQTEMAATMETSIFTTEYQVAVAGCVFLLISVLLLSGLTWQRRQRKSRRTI
T5 sequence 2: T2 sequence 1
T5 sequence 3: T2 sequence 2

[6] = molecular target: T6, intermediate affinity hIL-2 receptor complex (IL-2Rβγ) on TF1+IL-2Rβ cells (human, UniProt P14784 27-551; P31785 23-369); experiment: cell-based or functional assay
T6 sequence 1: T2 sequence 1
T6 sequence 2: T2 sequence 2

B1: 1H3-hIgG1-L6-hIL-2 (R38D/E61R) (other)
heavy: EVQLVESGGGLVQPGRSLKLSCAVSGFTFSDYAMAWVRQAPKKGLEWVATISYDGSRTYYRDSVKGRFTISRDNAKITLYLQMDSLRSEDTATYYCARHGSGYFDYWGQGVMVTVSS[not shown - about 450 residues with a human IgG1 Fc and changes]
light: DTVLTQSPALAVSPGERVTISCRASESVRTGVHWYQQKPGQQPKLLIYGASNLESGVPARFSGSGSGTDFTLTIDPVEADDTATYFCQQSWNDPFTFGSGTKLEIKRTVAAPSVFIFPPSDEQLKSGTASVVCLLNNFYPREAKVQWKVDNALQSGNSQESVTEQDSKDSTYSLSSTLTLSKADYEKHKVYACEVTHQGLSSPVTKSFNRGEC
notes: Built as m13
binding result [1]: no binding (tested: 300 nM)
Fold change from hIL-2 (TF1 + IL-2Rβ), fixed concentration pSTAT5 screen [2]: 1 fold
Kd [3]: 12.9 nM
koff [3]: 0.00473 s⁻¹
kon [3]: 368000 M⁻¹ s⁻¹

B2: 1H3-hIgG1-L6-hIL-2 (D20A/R38E) (other)
heavy: EVQLVESGGGLVQPGRSLKLSCAVSGFTFSDYAMAWVRQAPKKGLEWVATISYDGSRTYYRDSVKGRFTISRDNAKITLYLQMDSLRSEDTATYYCARHGSGYFDYWGQGVMVTVSS[not shown - about 450 residues with a human IgG1 Fc and changes]
light: B1 light
Fold change from rhIL-2 (TF1 + IL-2Rβ) [4]: > 10000 fold

B3: 1H3-hIgG1-L6-hIL-2 (T3A/D20A/R38E) (other)
heavy: EVQLVESGGGLVQPGRSLKLSCAVSGFTFSDYAMAWVRQAPKKGLEWVATISYDGSRTYYRDSVKGRFTISRDNAKITLYLQMDSLRSEDTATYYCARHGSGYFDYWGQGVMVTVSS[not shown - human IgG1 constant region]SGGGGSAPASSSTKKTQLQLEHLLLALQMILNGINNYKNPKLTEMLTFKFYMPKKATELKHLQCLEEELKPLEEVLNLAQSKNFHLRPRDLISNINVIVLELKGSETTFMCEYADETATIVEFLNRWITFCQSIISTLT
light: B1 light
Fold change from hIL-2 (NK-92) [5]: 18 fold
Fold change from hIL-2 (TF1 + IL-2Rβ) [6]: 2 fold

B4: 1H3-hIgG1-L6-hIL-2 (T3A/D20A/R38E/C125A) (other)
heavy: EVQLVESGGGLVQPGRSLKLSCAVSGFTFSDYAMAWVRQAPKKGLEWVATISYDGSRTYYRDSVKGRFTISRDNAKITLYLQMDSLRSEDTATYYCARHGSGYFDYWGQGVMVTVSS[not shown - human IgG1 constant region]SGGGGSAPASSSTKKTQLQLEHLLLALQMILNGINNYKNPKLTEMLTFKFYMPKKATELKHLQCLEEELKPLEEVLNLAQSKNFHLRPRDLISNINVIVLELKGSETTFMCEYADETATIVEFLNRWITFAQSIISTLT
light: B1 light
Fold change from hIL-2 (NK-92) [5]: 18 fold
Fold change from hIL-2 (TF1 + IL-2Rβ) [6]: 3 fold

B5: 1H3-hIgG1-L6-hIL-2 (D20A/R38E) (other)
heavy: EVQLVESGGGLVQPGRSLKLSCAVSGFTFSDYAMAWVRQAPKKGLEWVATISYDGSRTYYRDSVKGRFTISRDNAKITLYLQMDSLRSEDTATYYCARHGSGYFDYWGQGVMVTVSS[not shown - about 450 residues with a human IgG1 Fc and changes]
light: B1 light
Fold change from hIL-2 (NK-92) [5]: 15 fold
Fold change from hIL-2 (TF1 + IL-2Rβ) [6]: 3 fold

B6: 1H3-hIgG1-L6-hIL-2 (D20A/R38E/C125A) (other)
heavy: EVQLVESGGGLVQPGRSLKLSCAVSGFTFSDYAMAWVRQAPKKGLEWVATISYDGSRTYYRDSVKGRFTISRDNAKITLYLQMDSLRSEDTATYYCARHGSGYFDYWGQGVMVTVSS[not shown - human IgG1 constant region]SGGGGSAPTSSSTKKTQLQLEHLLLALQMILNGINNYKNPKLTEMLTFKFYMPKKATELKHLQCLEEELKPLEEVLNLAQSKNFHLRPRDLISNINVIVLELKGSETTFMCEYADETATIVEFLNRWITFAQSIISTLT
light: B1 light
Fold change from hIL-2 (NK-92) [5]: 16 fold
Fold change from hIL-2 (TF1 + IL-2Rβ) [6]: 3 fold

B7: 1H3-hIgG1-L6-hIL-2 (R38D/E61R/K43E) (other)
heavy: EVQLVESGGGLVQPGRSLKLSCAVSGFTFSDYAMAWVRQAPKKGLEWVATISYDGSRTYYRDSVKGRFTISRDNAKITLYLQMDSLRSEDTATYYCARHGSGYFDYWGQGVMVTVSS[not shown - human IgG1 constant region]SGGGGSAPTSSSTKKTQLQLEHLLLDLQMILNGINNYKNPKLTDMLTFEFYMPKKATELKHLQCLERELKPLEEVLNLAQSKNFHLRPRDLISNINVIVLELKGSETTFMCEYADETATIVEFLNRWITFCQSIISTLT
light: B1 light
notes: Built as m13
binding result [1]: no binding (tested: 300 nM)
Fold change from hIL-2 (TF1 + IL-2Rβ), fixed concentration pSTAT5 screen [2]: 1 fold
Kd [3]: 7.47 nM
koff [3]: 0.00338 s⁻¹
kon [3]: 452000 M⁻¹ s⁻¹
